{"source": "PubChem BioAssay AID463173", "about": "(ICCB-Longwood Screening Facility, Harvard Medical School, 2010)", "note": "Out of some 52,000 compounds screened, about 4,300 (8.3%) were called active. Rule as the data show it: active = survival mostly below about 52% (no sharp cut-off); inactive = mostly above about 56%. The list shows a part of the results."}
{"tested_on": "DeltatarO mutant", "test": "growth inhibition of S. aureus wild type versus tarO mutant, primary screen, teichoic acid synthesis inhibitors, RN4220, OD600 (AID 463173)", "conditions": "OD600, 18 h, active compounds read low, screened at 18.75 µg/mL (by protocol)"}
{"smiles": "CC(=O)N1CCc2cc(S(=O)(=O)N3CCN(c4ccc(C)cc4)C(C)C3)ccc21", "note": "(centres undefined)", "survival": "inactive: 87%"}
{"smiles": "O=C(COc1ccccc1)Nc1c(Cl)ccc2nsnc12", "survival": "inactive: 74%"}
{"smiles": "O=C(NCc1ccc(F)cc1)C(=O)NCC(c1cccs1)S(=O)(=O)c1cccs1", "note": "(centres undefined)", "survival": "inactive: 94%"}
{"smiles": "Cc1c(C(=O)OCCOc2ccccc2)[nH]c2c1C(=O)CC(c1ccccc1Cl)C2", "note": "(centres undefined)", "survival": "inactive: 80%"}
{"smiles": "CCOC(=O)c1cccc(NC(=O)c2nn(-c3ccc(OC)cc3)c(=O)c3c2c2ccccc2n3C)c1", "survival": "inactive: 63%"}
{"smiles": "CN(Cc1ccccc1)c1ccc(-c2nc(-c3cccnc3)no2)cc1[N+](=O)[O-]", "survival": "inactive: 62%"}
{"smiles": "CCN(Cc1ccccc1)S(=O)(=O)c1ccc2[nH]c3c(c2c1)CCCCC3", "survival": "inactive: 83%"}
{"smiles": "CCC(C(=O)NCCc1cc(OC)ccc1OC)n1nc(C)c2sc3ccccc3c2c1=O", "note": "(centres undefined)", "survival": "inactive: 69%"}
{"smiles": "CN(C)c1ccc(CNC(=O)c2cccn2-c2nnc(N3CCCCC3)s2)cc1", "survival": "inactive: 55%"}
{"smiles": "Cc1ccc(C)c(NC(=O)CSc2nc(-c3ccccc3Cl)nc3c2Cc2c(CO)cnc(C)c2O3)c1", "survival": "inactive: 118%"}
{"smiles": "CCOC(=O)c1cnc2nc(NCc3ccc(OCC)cc3)[nH]n2c1=O", "survival": "inactive: 90%"}
{"smiles": "CCCCOc1ccc(C(=O)NCCc2csc(-c3ccc(OC)cc3)n2)cc1", "survival": "inactive: 108%"}
{"smiles": "Cc1ccc(N2CCN(C(=O)c3cnc(N4CCCCC4)c4ccccc34)CC2)c(C)c1", "survival": "inactive: 84%"}
{"smiles": "COc1ccc(CNC(=O)CCCN2C(=O)COc3ccc(C)cc32)cc1", "survival": "inactive: 109%"}
{"smiles": "CCC(=O)Nc1ccccc1-c1nc2ccccc2n(CC(=O)c2ccc(C)cc2)c1=O", "survival": "inactive: 50%"}
{"smiles": "CSc1ncc(Cl)c(C(=O)Nc2c(C(=O)Nc3cccc(Cl)c3)oc3ccccc23)n1", "survival": "inactive: 71%"}
{"smiles": "COc1cccc(Cn2nnc3c(=O)[nH]c(C4CCN(C(=O)c5ccccc5Cl)CC4)nc32)c1", "survival": "active: 14%"}
{"smiles": "CC1=C(C(N)=O)C(c2ccccc2Br)n2ncnc2N1", "note": "(centres undefined)", "survival": "inactive: 85%"}
{"smiles": "O=C(NCc1ccccc1Br)c1cnc2sc(N3CCCCCC3)nn2c1=O", "survival": "inactive: 94%"}
{"smiles": "O=C(Nc1ccc(F)c(Cl)c1)N1CC=C(c2c[nH]c3ccccc23)CC1", "survival": "inactive: 77%"}
{"smiles": "CC(C)CCNC(=O)c1cc2cc(S(=O)(=O)N3CCCCC3)ccc2n1C", "survival": "inactive: 68%"}
{"smiles": "Cn1c(=O)oc2cc(S(=O)(=O)N3CCCC(C(=O)NCc4ccc(F)cc4)C3)ccc21", "note": "(centres undefined)", "survival": "inactive: 131%"}
{"smiles": "CCC(=O)N1c2ccccc2CC1C(=O)NCCc1ccccc1", "note": "(centres undefined)", "survival": "inactive: 69%"}
{"smiles": "O=C(NCCc1ccccc1Cl)c1sc2ncccc2c1-n1cccc1", "survival": "inactive: 144%"}
{"smiles": "O=C(O)CSC1=NC2CCCCC2N1", "note": "(centres undefined)", "survival": "inactive: 97%"}
{"smiles": "O=C(NC1CC(=O)N(c2ccccc2)C1)c1ccc(S(=O)(=O)N2CCCCC2)cc1", "note": "(centres undefined)", "survival": "active: 17%"}
{"smiles": "CCN(CC)c1nc2ccccc2nc1C(=O)Nc1cc(OC)c(OC)c(OC)c1", "survival": "inactive: 104%"}
{"smiles": "Cc1nn(C(=O)c2ccc(Cl)cc2)c(C)c1S(=O)(=O)N1CCCCCC1", "survival": "inactive: 80%"}
{"smiles": "Cc1nn2c(C)c(C(=O)NCc3ccco3)cnc2c1-c1ccccc1", "survival": "inactive: 126%"}
{"smiles": "Cc1ccc(N2CCn3c2nc2c3c(=O)n(CCCc3ccccc3)c(=O)n2C)cc1C", "survival": "inactive: 64%"}
{"smiles": "CCn1c(SCC(=O)NC2CCCC2)nnc1-c1ccccc1", "survival": "inactive: 75%"}
{"smiles": "COc1cc(OC)c(NC(=O)CCCn2nc(C)c3c(C)n(-c4ccccc4)nc3c2=O)cc1Cl", "survival": "active: 32%"}
{"smiles": "CCOC(=O)c1ccc(NC(=O)CSc2c3c(nc4cc(Cl)ccc24)CCCC3)cc1", "survival": "inactive: 68%"}
{"smiles": "COc1ccc(-n2nc(C(=O)N3CCCC(C)C3)c3c4ccccc4n(C)c3c2=O)cc1Cl", "note": "(centres undefined)", "survival": "inactive: 73%"}
{"smiles": "CSc1ccc(CCNS(=O)(=O)c2ccc3c(c2)C(C)(C)C(=O)N3C)cc1", "survival": "inactive: 84%"}
{"smiles": "O=c1c2ccccc2n2c(-c3ccc(Cl)cc3)nnc2n1CCc1ccccc1", "survival": "inactive: 76%"}
{"smiles": "COc1cc(OC)cc(C(=O)N2CCN(C(=O)COc3ccccc3)CC2)c1", "survival": "active: 54%"}
{"smiles": "COCCn1c(SCC(=O)N2CCCCC2C)nc2sc(C)c(C)c2c1=O", "note": "(centres undefined)", "survival": "inactive: 51%"}
{"smiles": "CC(C)c1ccc(NC(=O)C(C)N(c2ccccc2)S(C)(=O)=O)cc1", "note": "(centres undefined)", "survival": "inactive: 65%"}
{"smiles": "CC(C)C(NS(=O)(=O)c1ccc2c(c1)oc(=O)n2C)C(=O)NCCc1ccccc1", "note": "(centres undefined)", "survival": "inactive: 89%"}
{"smiles": "COc1cc(OC)c(NC(=O)N2CC3CCCN3c3ccccc32)cc1Cl", "note": "(centres undefined)", "survival": "inactive: 97%"}
{"smiles": "COc1ccc(-c2nc(CSc3nnc(C)n4c3cc3occc34)c(C)o2)cc1OC", "survival": "inactive: 73%"}
{"smiles": "COCCCNc1nc(NCc2cccc(Cl)c2)c2cnn(C)c2n1", "survival": "inactive: 85%"}
{"smiles": "CCc1ccc(-n2nc(C)c3c(C)cc(=O)n(CC(=O)Nc4ccc(C(C)=O)cc4)c32)cc1", "survival": "inactive: 78%"}
{"smiles": "COc1ccc(OCC(=O)NCC(c2ccc(OC)cc2)N2CCCCC2)cc1", "note": "(centres undefined)", "survival": "inactive: 79%"}
{"smiles": "COc1ccc(C2C(C(=O)Nc3cccnc3)=C(C)Nc3nc(-c4ccccc4)nn32)cc1OC", "note": "(centres undefined)", "survival": "inactive: 88%"}
{"smiles": "Cc1cccc(OCC(=O)N(Cc2ccc(C(C)(C)C)cc2)Cc2ccco2)c1", "survival": "inactive: 67%"}
{"smiles": "COc1ccccc1NC(=O)C1=C(C)Nc2nc(SCc3ccccc3Cl)nn2C1c1ccccn1", "note": "(centres undefined)", "survival": "inactive: 171%"}
{"smiles": "Cn1c(NN)nc2sc3c(c2c1=O)CCCC3", "survival": "inactive: 89%"}
{"smiles": "Cc1c(C(=O)Nc2ccc(C(C)C)cc2)sc2nc3n(c(=O)c12)CCC3", "survival": "inactive: 78%"}
{"smiles": "CCC(CC)c1nn2c(=O)cc(COc3ccc(NC(=O)c4ccc(C)cc4)cc3)nc2s1", "survival": "inactive: 96%"}
{"smiles": "Cc1cn2c(=O)cc(COC(=O)c3cccc(NC(=O)c4ccccc4Cl)c3)nc2s1", "survival": "inactive: 102%"}
{"smiles": "CCc1ccc(CNC(=O)CN2C(=O)CSc3c2c(C)nn3-c2ccccc2)cc1", "survival": "inactive: 99%"}
{"smiles": "COc1ccc(NC(=O)CC2C(=O)N(c3cccc(C)c3)C(=O)N2Cc2cccnc2)cc1", "note": "(centres undefined)", "survival": "inactive: 75%"}
{"smiles": "CC1CCC(NC(=O)CN2CCC(n3nnc4ccccc43)CC2)CC1", "note": "(centres undefined)", "survival": "inactive: 76%"}
{"smiles": "O=S(=O)(NN=C1CCCCC1)c1ccccc1", "survival": "inactive: 93%"}
{"smiles": "O=C(Cn1ncc2c3ccccc3n(Cc3ccc(F)cc3)c2c1=O)NCCC1=CCCCC1", "survival": "inactive: 85%"}
{"smiles": "Cc1ccc(C)c(CN2C(=O)c3ccccc3S(=O)(=O)c3ccc(C(=O)NCCCN4CCCC(C)C4)cc32)c1", "note": "(centres undefined)", "survival": "inactive: 140%"}
{"smiles": "COc1ccc(CNC(=O)C2CCCN(S(=O)(=O)c3cccc4nsnc34)C2)cc1", "note": "(centres undefined)", "survival": "inactive: 85%"}
{"smiles": "COC(=O)c1c(NC(=O)c2nc(SCc3ccc(F)cc3)ncc2Cl)sc2c1CCCC2", "survival": "inactive: 47%"}
{"smiles": "Cn1nnnc1SCCCNCc1cc(Cl)ccc1OCc1ccc(F)cc1", "survival": "inactive: 69%"}
{"smiles": "CCOc1ccccc1-c1noc(CSc2nnc(-c3ccccc3)n2-c2ccc(F)cc2)n1", "survival": "inactive: 96%"}
{"smiles": "Nc1c(C(=O)Nc2ccc(OC(F)(F)F)cc2)sc2nc(-c3ccncc3)ccc12", "survival": "inactive: 71%"}
{"smiles": "Cc1nn2c(=O)cc(COC(=O)Cc3ccccc3)nc2s1", "survival": "inactive: 78%"}
{"smiles": "O=c1c(-c2cc(-c3ccccc3)nc3c2COc2ccc(Cl)cc2-3)coc2ccc(F)cc12", "survival": "inactive: 90%"}
{"smiles": "O=C(Nc1nc2n(n1)C(c1ccc(F)cc1)C=C(c1ccccc1)N2)c1ccco1", "note": "(centres undefined)", "survival": "active: 41%"}
{"smiles": "Cc1c(Cl)cccc1NC(=O)c1ccc2c(c1)CCN2S(=O)(=O)c1ccccc1", "survival": "active: 39%"}
{"smiles": "Cc1ccc(CN2CCCN(CC(=O)Nc3ccc(C)cc3C)S2(=O)=O)cc1", "survival": "inactive: 89%"}
{"smiles": "CSc1ccc(CCNC(=O)Cn2ccc3cc(S(=O)(=O)N4CCCCCC4)ccc32)cc1", "survival": "inactive: 124%"}
{"smiles": "CN(C)CCNc1ncnc2c1cnn2-c1cccc(Cl)c1", "survival": "inactive: 85%"}
{"smiles": "Cc1ccc(-c2noc(C3CCCN(S(=O)(=O)c4ccc5c(c4)OCCO5)C3)n2)cc1", "note": "(centres undefined)", "survival": "inactive: 82%"}
{"smiles": "CN(C)c1ccc(C(CNC(=O)c2ccccc2C(F)(F)F)N2CCOCC2)cc1", "note": "(centres undefined)", "survival": "inactive: 70%"}
{"smiles": "O=C(Nc1cccc(Cl)c1Cl)c1cc(S(=O)(=O)NCc2ccc3c(c2)OCO3)ccc1F", "survival": "inactive: 88%"}
{"smiles": "Cc1ccc(-n2c(=O)cc(N3CCN(c4ccccc4Cl)CC3)[nH]c2=O)cc1", "survival": "active: 25%"}
{"smiles": "O=C(C1CC(c2ccc(Cl)cc2)=NO1)N1CCCC1", "note": "(centres undefined)", "survival": "inactive: 85%"}
{"smiles": "CC(=O)Nc1ccc(NC(=O)c2cccc(C)c2)cc1", "survival": "inactive: 85%"}
{"smiles": "Cc1ccc(CCNC(=O)c2ccc3c(Cl)c4c(nc3c2)CCCC4)cc1", "survival": "inactive: 61%"}
{"smiles": "CCCC(=O)Nc1ccccc1OCc1cc(=O)n2cc(C)ccc2n1", "survival": "inactive: 66%"}
{"smiles": "Cc1ccc(C)c(N2CCN(c3c(CN4CCCC4)c(=O)oc4ccccc34)CC2)c1", "survival": "inactive: 91%"}
{"smiles": "COc1ccccc1CNC(=O)c1ccc2nc(N3CCCCC3)sc2c1", "survival": "inactive: 111%"}
{"smiles": "CC(=O)c1ccc(NS(=O)(=O)c2cccc(S(=O)(=O)c3ccc(Cl)cc3)c2)cc1", "survival": "inactive: 124%"}
{"smiles": "CCOc1ccc(CCNC(=O)CN2CCN(Cc3ccc(Cl)cc3)C2=O)cc1OCC", "survival": "inactive: 69%"}
{"smiles": "CCc1ccc(N(CC)C(=O)c2cc3c(=O)oc4ccc(C)cc4c3s2)cc1", "survival": "active: 42%"}
{"smiles": "COc1cccc(NC(=O)C(=O)NCC(c2ccc3c(c2)OCO3)N2CCN(C)CC2)c1", "note": "(centres undefined)", "survival": "inactive: 67%"}
{"smiles": "Cc1cccc(NC(=O)CSc2ccc(-c3ccccn3)nn2)c1", "survival": "inactive: 103%"}
{"smiles": "Cc1cccc(C)c1Nc1nn2c(=O)c3cc4c(cc3nc2s1)OCO4", "survival": "inactive: 76%"}
{"smiles": "COc1cccc(Cn2c(Oc3cc(C)cc(C)c3)nc3c2c(=O)n(C)c(=O)n3C)c1", "survival": "active: 31%"}
{"smiles": "COc1ccc(CC(=O)N2CCc3cc(OC)c(OC)cc3C2COc2cc(C)cc(C)c2)cc1OC", "note": "(centres undefined)", "survival": "inactive: 120%"}
{"smiles": "CCc1ccc(S(=O)(=O)N(C(=O)c2ccncc2)c2ccc3oc(C)c(C(=O)OC)c3c2)cc1", "survival": "inactive: 52%"}
